The source of these data is publication PMC4336329 (PLoS ONE, 2015).

The campaign covered roughly 310,000 compounds. About 14,000 (4.5%) showed an effect of 50% or more. The effect is printed as a negative number. This is one part of the list.
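Also: peak tail current of the secondary pulse compared with the same well before compound.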

Sequence of human ether-à-go-go-related gene (hERG) potassium channel (Q12809 whole entry, looked up): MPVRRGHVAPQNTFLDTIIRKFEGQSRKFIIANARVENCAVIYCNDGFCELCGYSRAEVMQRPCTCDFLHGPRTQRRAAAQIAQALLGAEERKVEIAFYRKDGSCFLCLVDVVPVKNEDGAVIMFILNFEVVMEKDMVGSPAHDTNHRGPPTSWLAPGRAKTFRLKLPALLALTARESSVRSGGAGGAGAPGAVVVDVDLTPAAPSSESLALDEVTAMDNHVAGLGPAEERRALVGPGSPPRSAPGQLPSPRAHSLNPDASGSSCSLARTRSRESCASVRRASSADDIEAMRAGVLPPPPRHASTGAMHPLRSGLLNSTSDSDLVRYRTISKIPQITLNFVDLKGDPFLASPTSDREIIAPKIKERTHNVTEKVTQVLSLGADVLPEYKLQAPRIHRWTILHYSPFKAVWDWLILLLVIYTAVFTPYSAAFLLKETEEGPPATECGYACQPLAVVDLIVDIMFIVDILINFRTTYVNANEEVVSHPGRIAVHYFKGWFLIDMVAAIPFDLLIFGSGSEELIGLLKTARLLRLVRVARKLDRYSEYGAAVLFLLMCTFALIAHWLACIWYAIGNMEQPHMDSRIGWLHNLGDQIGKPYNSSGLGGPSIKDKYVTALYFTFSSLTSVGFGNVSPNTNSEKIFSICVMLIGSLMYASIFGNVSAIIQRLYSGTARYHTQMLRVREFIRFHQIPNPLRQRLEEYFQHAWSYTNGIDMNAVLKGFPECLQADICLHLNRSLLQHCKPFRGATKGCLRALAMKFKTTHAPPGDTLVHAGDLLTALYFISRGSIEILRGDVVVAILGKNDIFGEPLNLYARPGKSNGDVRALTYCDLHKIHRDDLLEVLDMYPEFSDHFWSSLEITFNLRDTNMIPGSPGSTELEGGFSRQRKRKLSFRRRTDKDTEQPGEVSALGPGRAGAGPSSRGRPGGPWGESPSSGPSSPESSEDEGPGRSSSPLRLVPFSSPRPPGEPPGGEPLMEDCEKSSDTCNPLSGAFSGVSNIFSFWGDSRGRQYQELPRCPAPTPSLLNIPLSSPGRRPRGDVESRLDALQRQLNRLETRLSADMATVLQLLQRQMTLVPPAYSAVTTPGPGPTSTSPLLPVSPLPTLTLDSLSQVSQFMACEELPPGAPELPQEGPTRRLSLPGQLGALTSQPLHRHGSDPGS

This assay concerns the target human ether-à-go-go-related gene (hERG) potassium channel (human, UniProt Q12809). Nature of the assay: primary screen, population patch clamp on CHO cells stably expressing hERG.
For `Cc1cc(NC(=O)/C=C\C(=O)O)c([N+](=O)[O-])cc1C`, the “hERG current change (%, negative = inhibition) at 10uM” value is on record as 11.6%.

On to `COc1cc(NC(=O)c2ccnnc2)cc(C(=O)Nc2cccc(C(F)(F)F)c2)c1`, for which the “hERG current change (%, negative = inhibition) at 10uM” value is -52.8%.

Turning to `Cn1cc(Cl)c(C(=O)Nc2cnn(Cc3ccc(F)cc3)c2)n1`, the “hERG current change (%, negative = inhibition) at 10uM” value was -24.2%.

Regarding `CC(C)=C1SC(N2CCN(c3cccc(C(F)(F)F)c3)CC2)=NC1=O`, the “hERG current change (%, negative = inhibition) at 10uM” value is reported as -2.7%.

`Cc1ccc2c(c1)CCCN2N=O`: the “hERG current change (%, negative = inhibition) at 10uM” value is reported as 0.938%.

Regarding `COC(=O)COc1nsnc1N1CCOCC1`, the “hERG current change (%, negative = inhibition) at 10uM” value is 1.04%.

As to `CCOC(=O)C(C)CC(C)C(=O)N1CCOCCN(C(=O)C(C)CC(C)C(=O)OCC)CCOCC1` (stereo not drawn), the “hERG current change (%, negative = inhibition) at 10uM” value is -9.48%.

On to `CCn1ccnc1CNC(=O)C1CCC(=O)N(Cc2cccc(C(F)(F)F)c2)C1` (stereo not drawn), for which the “hERG current change (%, negative = inhibition) at 10uM” value is recorded as -7.28%.

For the compound `O=c1oc(-c2cccs2)nc2scc(-c3cccs3)c12`, the “hERG current change (%, negative = inhibition) at 10uM” value was found to be 14.3%.

Consider `Cc1ccc(NC(=O)NC2CCCCCCC2)c(C)c1`, for which the “hERG current change (%, negative = inhibition) at 10uM” value is given as 14.8%.

For `CCCC(=O)Nc1ccccc1-c1nnc(SCC)[nH]c1=O`, the “hERG current change (%, negative = inhibition) at 10uM” value was found to be 0.917%.

With `N#CCc1nc(-c2cc3ccccc3oc2=O)cs1`, the “hERG current change (%, negative = inhibition) at 10uM” value was determined as 4.23%.

For `O=[N+]([O-])c1ccc(O)c(CN2CCCCCC2)c1`, the “hERG current change (%, negative = inhibition) at 10uM” value worked out at 18.6%.

With `NC(=O)Nc1ccc(C(=O)OCC(=O)Nc2cccc(S(=O)(=O)NC3=NCCCCC3)c2)cc1`, the “hERG current change (%, negative = inhibition) at 10uM” value is -4.61%.

As for `COc1ccc(C2=NN(c3ccccc3)C(c3ccc(OC)c(OC)c3)C2)cc1` (stereo not drawn), the “hERG current change (%, negative = inhibition) at 10uM” value is reported as 15.9%.

In the case of `COc1ccc(Cl)cc1NC(=O)c1cc(-c2cc(C)ccc2O)n[nH]1`, the “hERG current change (%, negative = inhibition) at 10uM” value is recorded as 15.7%.

In the case of `Cc1noc(C)c1COc1ccc(CC(=O)NCCc2ccccn2)cc1`, the “hERG current change (%, negative = inhibition) at 10uM” value is on record as -9.23%.

As for `Cn1c(=O)c2c(Nc3ccc(F)cc3)cc(=O)n(-c3ccccc3)c2n(C)c1=O`, the “hERG current change (%, negative = inhibition) at 10uM” value amounted to 8.29%.

Take `COc1ccc(N2CCN(CCCN)CC2)cc1`: the “hERG current change (%, negative = inhibition) at 10uM” value stood at 8.6%.

Consider `COc1ccc(-c2nsc3c(N4CCCC4)ncnc23)cc1`, for which the “hERG current change (%, negative = inhibition) at 10uM” value is -2.81%.

`COCCCNC(=O)Cn1nnc(-c2ccc(NC(=O)c3ccc(F)cc3)cc2)n1`: the “hERG current change (%, negative = inhibition) at 10uM” value is given as 11.9%.

As for `O=C(Nc1cccc(O)c1)c1c(O)c2ccccc2[nH]c1=O`, the “hERG current change (%, negative = inhibition) at 10uM” value is given as 11.7%.

As to `O=C(c1cc2c(=O)n3ccccc3nc2s1)N1CCOCC1`, the “hERG current change (%, negative = inhibition) at 10uM” value was -10.5%.

Regarding `O=C(CNC(=O)c1cn2ccccc2n1)Nc1ccc(F)c(F)c1`, the “hERG current change (%, negative = inhibition) at 10uM” value came to 6.43%.

In the case of `O=C(c1ccc(N2CCCS2(=O)=O)cc1)N1CCN(c2ccccc2)CC1`, the “hERG current change (%, negative = inhibition) at 10uM” value is recorded as -8.92%.

As for `O=C(NCCN1CCOCC1)c1sc2ccccc2c1Cl`, the “hERG current change (%, negative = inhibition) at 10uM” value is recorded as -6.21%.

On to `N#Cc1c(NC(=O)CSc2ncnc3c2cnn3-c2ccccc2Cl)sc2c1CCCC2`, for which the “hERG current change (%, negative = inhibition) at 10uM” value turned out to be 3.26%.

In the case of `OCc1cc(-c2ccccn2)no1`, the “hERG current change (%, negative = inhibition) at 10uM” value is 5.49%.

With `O=C(COC(=O)c1cc([N+](=O)[O-])ccc1N1CCOCC1)Nc1ncc(Cl)cc1Cl`, the “hERG current change (%, negative = inhibition) at 10uM” value is recorded as -29.2%.

For the compound `CSc1ncccc1C(=O)OCC(=O)c1[nH]c(C)c(C(C)=O)c1C`, the “hERG current change (%, negative = inhibition) at 10uM” value is on record as 3.77%.

Take `Cc1ccc(S(=O)(=O)N2CCOCC2)cc1NC(=O)CSCc1c(C)noc1C`: the “hERG current change (%, negative = inhibition) at 10uM” value is -8.77%.

Consider `O=C(CN1CCN(c2ccccn2)CC1)Nc1cccc(F)c1`, for which the “hERG current change (%, negative = inhibition) at 10uM” value stood at 5.56%.

In the case of `c1csc(-c2nc3ccccc3[nH]2)c1`, the “hERG current change (%, negative = inhibition) at 10uM” value is on record as 13.7%.

On to `COc1cc2c(cc1OC)C(c1cccc([N+](=O)[O-])c1)N(C(=O)CCC(=O)O)CC2` (stereo not drawn), for which the “hERG current change (%, negative = inhibition) at 10uM” value was 14.2%.

On to `COc1ccc(C2CC3(CC(C)(C)NC(=O)N3)Oc3cc(O)ccc32)cc1` (stereo not drawn), for which the “hERG current change (%, negative = inhibition) at 10uM” value was -20.3%.

Regarding `COc1c(Cl)ccc(Cl)c1C(=O)NC(=O)Nc1nc(C)cc(C)n1`, the “hERG current change (%, negative = inhibition) at 10uM” value was -6.22%.

Take `CCOC(=O)c1c(-n2cccc2)sc2c1CCCC2=O`: the “hERG current change (%, negative = inhibition) at 10uM” value is given as -17%.

Regarding `O=C(Nc1ccc(Cl)cc1)c1ccc(-n2cncn2)c([N+](=O)[O-])c1`, the “hERG current change (%, negative = inhibition) at 10uM” value is listed as -41.1%.

Consider `CN(C)S(=O)(=O)c1ccc(Cl)c(C(=O)NNC(=O)Cc2nc3ccccc3n2C)c1`, for which the “hERG current change (%, negative = inhibition) at 10uM” value is on record as -3.96%.

Turning to `CCOC(=O)Nc1ccc([N+](=O)[O-])cc1C`, the “hERG current change (%, negative = inhibition) at 10uM” value worked out at 2.48%.

With `CCCn1c(SCC(=O)Nc2cccc(F)c2)nc(O)cc1=O`, the “hERG current change (%, negative = inhibition) at 10uM” value stood at 23.1%.

As to `Oc1ccc(/C=N/n2c(-c3ccco3)csc2=Nc2cccnc2)c(O)c1`, the “hERG current change (%, negative = inhibition) at 10uM” value came out at 5.3%.

As to `CC(c1ccco1)N(C(=O)C12CC3CC(CC(C)(C3)C1)C2)c1ccccn1` (stereo not drawn), the “hERG current change (%, negative = inhibition) at 10uM” value was -2.41%.

Take `O=C(NCc1ccco1)c1cccnc1Cl`: the “hERG current change (%, negative = inhibition) at 10uM” value was found to be 1.19%.

Turning to `Cc1ccc(NC(=S)N(CCCN2CCC(C)CC2)Cc2ccco2)cc1C`, the “hERG current change (%, negative = inhibition) at 10uM” value is -70.3%.
